# Laboratory results reported in PMC4336329 (PLoS ONE, 2015).
# The campaign covered roughly 310,000 compounds. About 14,000 (4.5%) showed an effect of 50% or more. The effect is printed as a negative number. Some of the results follow.
# Molecular target: human ether-à-go-go-related gene (hERG) potassium channel (human, UniProt Q12809)
# Test: primary screen, population patch clamp on CHO cells stably expressing hERG
# 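Also: peak tail current of the secondary pulse compared with the same well before compound.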
# human ether-à-go-go-related gene (hERG) potassium channel, sequence (Q12809 whole entry, looked up): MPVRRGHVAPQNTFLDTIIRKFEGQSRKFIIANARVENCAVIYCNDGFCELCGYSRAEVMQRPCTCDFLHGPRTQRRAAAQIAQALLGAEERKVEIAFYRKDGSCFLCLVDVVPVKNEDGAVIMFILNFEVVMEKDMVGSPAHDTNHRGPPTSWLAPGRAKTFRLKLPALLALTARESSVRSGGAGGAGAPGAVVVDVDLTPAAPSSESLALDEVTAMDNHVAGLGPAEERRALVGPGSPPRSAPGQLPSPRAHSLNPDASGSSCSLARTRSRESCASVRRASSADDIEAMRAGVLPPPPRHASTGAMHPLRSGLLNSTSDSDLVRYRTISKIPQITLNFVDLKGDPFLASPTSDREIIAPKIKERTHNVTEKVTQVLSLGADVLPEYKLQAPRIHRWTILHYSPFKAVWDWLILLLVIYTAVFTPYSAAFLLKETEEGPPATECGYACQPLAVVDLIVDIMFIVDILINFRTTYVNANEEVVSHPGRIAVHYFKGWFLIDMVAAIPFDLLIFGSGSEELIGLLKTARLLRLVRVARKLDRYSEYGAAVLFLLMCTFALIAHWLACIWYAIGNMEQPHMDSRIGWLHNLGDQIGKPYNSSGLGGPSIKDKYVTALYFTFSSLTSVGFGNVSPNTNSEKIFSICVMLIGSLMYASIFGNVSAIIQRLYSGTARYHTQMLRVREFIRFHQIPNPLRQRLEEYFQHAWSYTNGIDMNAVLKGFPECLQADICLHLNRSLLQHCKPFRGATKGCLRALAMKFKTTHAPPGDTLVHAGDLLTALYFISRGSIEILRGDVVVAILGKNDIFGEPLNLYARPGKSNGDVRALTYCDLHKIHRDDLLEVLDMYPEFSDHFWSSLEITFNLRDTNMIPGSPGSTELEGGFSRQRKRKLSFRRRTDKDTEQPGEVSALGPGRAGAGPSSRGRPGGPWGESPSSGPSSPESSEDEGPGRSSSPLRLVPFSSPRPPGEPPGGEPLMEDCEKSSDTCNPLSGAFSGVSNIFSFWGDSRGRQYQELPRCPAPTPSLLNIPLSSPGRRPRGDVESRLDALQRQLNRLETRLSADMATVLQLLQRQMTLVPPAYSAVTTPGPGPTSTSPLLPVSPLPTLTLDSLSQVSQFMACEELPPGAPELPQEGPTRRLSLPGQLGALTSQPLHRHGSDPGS
row,Structure (SMILES),"hERG current change (%, negative = inhibition) at 10uM [%]"
1,CC(NC(=O)C1CCCN(S(=O)(=O)N2CCOCC2)C1)c1ccccc1 (stereo not shown),15.8
2,Cc1ccc(CNC(=O)COc2ccccc2-c2ccccc2)cc1,-4.61
3,CN(C(=O)CC1C(=O)NCCN1Cc1ccoc1)C1CCOCC1 (stereo not shown),18.8
4,O=c1c2ccccc2nc(-c2ccco2)n1-c1cccnc1,-5.18
5,CCOc1ccc(C(C)NC(=O)Cc2ccccc2)cc1OCC (stereo not shown),11.4
6,COc1ccccc1NC(=O)c1cc(Sc2nncn2C)nc2ccccc12,-14.7
7,COc1cc(C(=O)Nc2sc3c(c2C(=O)NCc2ccco2)CCCC3)cc(OC)c1OC,13.6
8,O=C(N/N=C/c1c(O)n(-c2cccc3ccccc23)c(=O)[nH]c1=O)c1ccncc1,3.58
9,Cc1ccc(NC(=O)CSc2nc(=O)n(CCCN(C)C)c3c2CCC3)c(C)c1,-50.6
10,CCOC(=O)c1c(C)n(Cc2ccccc2)c2ccc(OCC(O)Cn3nc(C)cc3C)cc12 (stereo not shown),10.8
11,O=C(CCN1C(=O)S/C(=C\c2cccs2)C1=O)NC1=NCCS1,-10.6
12,Cc1cc(NC(=O)CCC(=O)N(Cc2cccs2)C(C(=O)NC2CCCC2)c2ccncc2)no1 (stereo not shown),8.81
13,Cc1c(NC(=O)Nc2cccc(F)c2)c(=O)n(-c2ccccc2)n1C,-1.4
14,O=C(Nc1ccon1)c1ccc(F)c(S(=O)(=O)N2CCCCC2)c1,14
15,O=c1[nH]c(=O)n(C2CCCCCC2)c(O)c1C=NC1CCN(Cc2ccccc2)CC1,-53.2
16,CCN(CC)S(=O)(=O)c1ccc2c(c1)[nH]c(=S)n2CC,4.12
17,Cc1cc(OCC(=O)Nc2nnc(C3CC3)s2)ccc1C(C)C,11.3
18,CC(C)(C)C(=O)N1CCc2cc(-c3csc(N)n3)ccc21,-4.87
19,COc1ccc(S(=O)(=O)N(Cc2ccccc2)c2ccccc2C(=O)O)cc1,31.8
20,Cc1ccccc1-n1nc2c(c1NC(=O)c1ccc3c(c1)OCO3)CS(=O)(=O)C2,-17.6
21,COc1ccc(S(=O)(=O)N2CCC(C(=O)N3CCCCC3)CC2)cc1Cl,-20.7
22,CC(C)c1ccc(C2(C)NC(=O)N(CC(=O)NC3(C#N)CCCC3)C2=O)cc1 (stereo not shown),-1.08
23,COCCN1Cc2cccc(C(=O)Nc3cccnc3)c2C1=O,-32.6
24,COc1ccc(-n2c(-c3ccc(Br)cc3)c[n+]3c2SC(C)C3)cc1.[Br-] (stereo not shown),-72.6
25,Cc1ccc(CN(C)c2nc(-c3cccnc3)nc3ccccc23)o1,12.7
26,CS(=O)(=O)CCC(C(=O)Nc1ccc2c(c1)OCO2)N1Cc2ccccc2C1=O (stereo not shown),15.4
27,CN(C(=O)c1cccc(C#N)c1)c1nnc(C2CCOC2)s1 (stereo not shown),-0.542
28,COc1cc(Br)cc(/C=N/N(CCO)C2=NS(=O)(=O)c3ccccc32)c1OC,-30.8

row,Structure (SMILES),"hERG current change (%, negative = inhibition) at 10uM [%]"
1,O=C(C/C=N\OCc1ccc(Cl)cc1Cl)Nc1ccccc1,8.61
2,Cn1nnc(NC(=O)c2cccc(F)c2)n1,16.6
3,O=C(/C=C/c1ccccc1Cl)Nc1cccc(O)c1,11.2
4,Cc1ccc2nc(SCC(=O)c3ccc(Cl)cc3)nc(=O)n2c1,-7.93
5,O=C(CCSc1ccc(Cl)cc1)c1ccco1,-25.2
6,CCOc1ccc(NC(=O)CCCCn2c(=O)[nH]c3ccsc3c2=O)cc1,-30.3
7,CC(C)c1nc(SCC(=O)N2CCCC2)c2ccccc2n1,-10.3
8,FC(F)(F)c1cc(-c2cccs2)nc(-n2cc(Cl)cn2)n1,0.253
9,Cc1cc(C)c(C)c(S(=O)(=O)N2CCN(C(=O)c3ccco3)CC2)c1C,-23.5
10,Br.c1ccc2c(CCNCc3ccc4c(c3)OCO4)c[nH]c2c1,-8.18
11,O=C(NCCc1ccccc1)c1nc2c(nnn2Cc2ccccc2Cl)c(=O)[nH]1,-2.86
12,Cc1ccccc1C(=O)N1CCC(C(=O)NC(C)c2ccc(-n3ccnc3)cc2)CC1 (stereo not shown),-23
13,COc1cc(Cc2cnc(N)nc2N)cc(OC)c1OC,-7.16
14,O=C(O)c1cccc(S(=O)(=O)Nc2ccc([N+](=O)[O-])cc2O)c1,5.03
15,N/C(Cc1cccc2ccccc12)=N\O,2.9
16,COc1ccc(C2=NN(C(=O)CSc3nc4ccccc4s3)C(c3ccc(OC)cc3)C2)cc1 (stereo not shown),6.16
17,O=C(Nc1cccc2nsnc12)c1ccc2c(c1)OCCO2,8.64
18,CC(C)(C)c1ccc(C(CC(=O)O)NC(=O)c2ccccc2F)cc1 (stereo not shown),22.8
19,COc1ccc(NC(=O)C(CC(=O)O)Cc2ccc(C)cc2)cc1 (stereo not shown),7.47
20,CCN1C(=O)[C@@H]2[C@H](C1=O)[C@@H]1C[C@H]3C(=O)N(CC)C(=O)[C@H]3[C@@H]3C1=C(C(=O)N1C(=O)OC(=NCC4CC4)[C@]31C)[C@@H]2C,17.9
21,Cc1cccc(C)c1NS(=O)(=O)c1ccc(-c2ccc(=O)[nH]n2)o1,-46.2
22,CC(=O)OC1CSC2c3ccccc3C(=O)N2Cc2sccc21 (stereo not shown),1.4
23,Cc1nc2ccc(Br)cn2c1NC(C)(C)C,-20.9
24,Cc1cc(Nc2ccccc2)n2nc(C)c(-c3ccccc3)c2n1,2.79
25,Cc1[nH][nH]c(=O)c1N=Nc1ccc(Cl)cc1,2.19
26,Cc1ccc(S(=O)(=O)NC2c3cccc4cccc(c34)C2Sc2nc(C)cc(C)n2)cc1 (stereo not shown),-36.2
27,Cc1c(C(=S)NC(=O)C2CC2)c(=O)n(-c2ccccc2)n1C,29.3
